# In all, about 33,000 sequences were measured (“E-score (-0.5 to 0.5)”: median about -0.053, highest 2% from about 0.37 on). The list shows a part of the results.
# Molecular target: Hap1 (UniProt P0CE41)
# Assay: PBM E-score (8-mer binding enrichment) (E-score (-0.5 to 0.5)); higher = stronger / more preferred TF binding; most listed sequences are background and not binding sites
# Conditions: protein concentration: 200 nM; construct: GST-DNA-binding domain
# Description: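 Universal 'all 10-mer' protein binding microarrays (Agilent AMADID 015681) probed with GST-tagged S. cerevisiae TFs (full-length or DBD) made by in vitro transcription/translation (PURExpress), about 100-200 nM. Bound TF was detected with fluorescent anti-GST. Each ungapped 8-mer (which stands for itself and its reverse complement) is scored by the PBM enrichment score (E-score), a modified Wilcoxon-Mann-Whitney statistic from -0.5 to +0.5, computed with the Universal PBM Analysis Suite. Scale: above 0.35 generally sequence-specific binding.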
# Chain of UniProt P0CE41 (P0CE41 whole entry): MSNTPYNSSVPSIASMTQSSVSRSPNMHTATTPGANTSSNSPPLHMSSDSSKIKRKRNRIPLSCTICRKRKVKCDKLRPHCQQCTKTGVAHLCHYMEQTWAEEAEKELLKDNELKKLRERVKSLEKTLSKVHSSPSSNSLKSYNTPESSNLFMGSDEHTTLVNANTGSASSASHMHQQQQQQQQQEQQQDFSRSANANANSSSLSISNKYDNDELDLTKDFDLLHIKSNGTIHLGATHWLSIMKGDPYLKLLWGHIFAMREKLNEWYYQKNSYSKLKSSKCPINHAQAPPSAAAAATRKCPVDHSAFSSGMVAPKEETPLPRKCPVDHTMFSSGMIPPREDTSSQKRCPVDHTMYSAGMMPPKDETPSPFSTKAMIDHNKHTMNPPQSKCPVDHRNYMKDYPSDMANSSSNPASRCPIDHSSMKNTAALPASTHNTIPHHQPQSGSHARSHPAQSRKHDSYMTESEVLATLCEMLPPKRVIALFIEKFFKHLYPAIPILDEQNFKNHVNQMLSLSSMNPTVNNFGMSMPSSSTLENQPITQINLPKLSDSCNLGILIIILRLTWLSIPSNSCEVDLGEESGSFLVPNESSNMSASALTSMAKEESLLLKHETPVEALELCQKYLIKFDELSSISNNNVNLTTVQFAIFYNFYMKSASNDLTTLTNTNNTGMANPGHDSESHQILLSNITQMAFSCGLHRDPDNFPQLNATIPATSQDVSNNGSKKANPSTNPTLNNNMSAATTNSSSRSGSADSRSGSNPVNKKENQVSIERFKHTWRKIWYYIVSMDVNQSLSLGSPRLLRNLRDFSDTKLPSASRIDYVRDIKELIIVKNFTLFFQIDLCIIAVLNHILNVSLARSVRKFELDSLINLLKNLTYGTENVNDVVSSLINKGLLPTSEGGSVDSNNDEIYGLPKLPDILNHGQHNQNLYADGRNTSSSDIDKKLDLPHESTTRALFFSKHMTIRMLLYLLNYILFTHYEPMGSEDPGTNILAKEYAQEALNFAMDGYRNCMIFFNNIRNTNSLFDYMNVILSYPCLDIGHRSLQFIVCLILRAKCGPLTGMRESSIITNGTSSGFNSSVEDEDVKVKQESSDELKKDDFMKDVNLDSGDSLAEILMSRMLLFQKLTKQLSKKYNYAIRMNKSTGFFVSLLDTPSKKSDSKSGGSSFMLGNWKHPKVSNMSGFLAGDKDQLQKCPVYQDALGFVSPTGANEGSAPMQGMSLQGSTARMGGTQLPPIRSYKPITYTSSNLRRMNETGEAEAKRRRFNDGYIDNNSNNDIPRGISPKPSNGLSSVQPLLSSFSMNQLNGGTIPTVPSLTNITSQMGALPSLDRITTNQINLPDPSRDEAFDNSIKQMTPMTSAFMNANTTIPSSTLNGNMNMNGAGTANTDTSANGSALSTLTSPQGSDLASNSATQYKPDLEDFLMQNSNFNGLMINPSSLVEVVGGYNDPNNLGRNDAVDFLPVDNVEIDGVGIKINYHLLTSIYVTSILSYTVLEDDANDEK
row,Sequence,PBM E-score
1,AACGACTA,-0.161
2,AGAGACCA,-0.177
3,TCCGGCAA,0.326
4,CGAGGTAA,0.16
5,CTTAGGTA,-0.087
6,GCCCCCCA,-0.255
7,ACTTTTCT,-0.217
8,ATGCTGCA,-0.189
9,ACTGCCGA,0.261
10,CACACAAC,-0.209
11,GCTACAGC,-0.143
12,GATTGGCC,0.0423
13,AAACAGTT,0.071
14,ACGCACTC,-0.101
15,AGTAGCAT,-0.0316
16,AAACTTGA,-0.241
17,AAGACTCA,-0.343
18,AGTTGCAA,-0.0437
19,CTCCAATC,-0.121
20,GCCCAACC,-0.0221
21,CAGACACG,-0.038
22,ATATTGTC,0.2
23,AAGAGCCT,-0.219
24,ATGCTAAG,-0.0785
25,AACGTGTG,-0.333

row,Sequence,PBM E-score
1,GTCAGATA,-0.144
2,ACGCTCAC,0.0603
3,GATACAGC,0.0804
4,CTGATTGC,-0.115
5,TCTTAAGA,-0.0949
6,ATATCTAA,-0.0587
7,AAATCGGG,0.246
8,CTCGGAGA,0.407
9,GTCCTAGA,-0.246
10,TGACGTCA,-0.0588
11,AAACCATG,0.125
12,AGAACAGC,-0.0131
13,ATCATAGC,-0.06
14,GAACTACC,0.00478
15,GAACACGC,0.183
16,CTGCTGAC,-0.15
17,CTAATCTA,0.0829
18,CTATGGGA,-0.109
19,AAGTGCCC,0.0673
20,ACCTTTCA,-0.0864
21,GACGATCC,0.0734
22,ACGCGGCG,0.241
23,CCCGCAAA,0.205
24,AAACAAAA,-0.135
25,TACCTAGA,-0.225

row,Sequence,PBM E-score
1,AACTAGGG,-0.203
2,ACAAAAAA,-0.0543
3,CACTGTCA,-0.261
4,CTCGCCTA,-0.013
5,CAGGAAAA,-0.0124
6,CGCGAGAA,0.0972
7,CCGTATGC,0.139
8,GCGCGACC,0.0577
9,GTCCATGA,-0.249
10,CAGAAGGA,-0.341
11,AACCTAAG,-0.15
12,AGCCCTCG,-0.0699
13,CAGTTAAA,-0.157
14,TTCTTAAA,-0.154
15,AACAGATG,-0.127
16,AAAAACCA,0.0345
17,GACGACGA,-0.0332
18,GGAAATCC,0.234
19,GCGATAAC,0.322
20,CATGTGAG,-0.215
21,AGCCCGCT,-0.00085
22,CGACCATA,-0.0579
23,ATACGTCG,0.135
24,AAAGACAT,-0.195
25,TACAAATA,-0.0421

row,Sequence,PBM E-score
1,CGGACCAC,0.279
2,CATTTGTA,-0.0948
3,AAAGTTAC,-0.202
4,AGGGGCAT,-0.153
5,GGTATTAA,0.265
6,AGACTGAG,-0.208
7,CGCCTGCA,-0.0935
8,ACGGACTG,0.159
9,CGAACTAA,0.0162
10,CCTGGGAA,-0.142
11,CCGATTCG,0.347
12,ACGGTCAA,0.161
13,CATTACGA,-0.296
14,AACGATAA,0.131
15,ATAACCCG,0.268
16,CCTGATCA,-0.235
17,CGTCATCC,0.0326
18,AAAGGATC,-0.126
19,AGCAGAGC,-0.207
20,AGGACGTC,-0.15
21,ACAATGCC,0.0614
22,GCCTTGCA,-0.198
23,ATAAAGGG,-0.114
24,CCTCTAAA,-0.289
25,AGCATCTC,-0.13

row,Sequence,PBM E-score
1,GCACAAAA,0.115
2,CACCATCG,-0.192
3,ACCCTCTC,-0.187
4,GTCCCTAA,-0.126
5,CTCGCAAA,-0.236
6,GACTGTAC,-0.171
7,AAGGGTCT,-0.0614
8,ACCAGTAG,-0.199
9,CTTGGATA,0.057
10,ATTGGCGA,-0.102
11,GTTTAGGA,-0.103
12,AGAGCGGA,0.13
13,AATCACCT,-0.0893
14,AAGGACTT,0.0585
15,AGCCTCAT,-0.156
16,ATCTCATC,-0.0811
17,CGAACCCA,-0.0238
18,AAACTCTC,-0.0198
19,CATGGTTA,-0.0725
20,CTGTACGA,-0.224
21,AGTGTGAG,-0.163
22,CAAATCCA,-0.0837
23,CGCCACCG,0.00342
24,CATCCGTC,0.173
25,AGATTGCC,0.0774

row,Sequence,PBM E-score
1,CGACAATA,0.192
2,TCGCATAA,0.00981
3,GTGATACA,-0.00703
4,ATGCCTGA,-0.169
5,ATTAGCCC,0.111
6,CTCCCAAG,-0.131
7,GTCCTTCA,-0.162
8,AATACAGT,-0.224
9,CTCACGTA,-0.0209
10,AAGTTTAA,-0.122
11,AAAGGGTT,-0.0226
12,CGAACGTC,0.0803
13,ACATACAA,-0.0204
14,GACCTGCA,-0.302
15,AAACCCTG,0.0367
16,TACCCCAA,0.033
17,CCCCAGCG,-0.0863
18,CACTCGGG,0.159
19,AGGTGCTG,-0.13
20,AAAATTAG,-0.00754
21,AACGAGAC,-0.0865
22,CATACAAA,0.0392
23,ATTGCGCG,0.224
24,GACACGGC,0.183
25,GGAAGCAA,0.0931

row,Sequence,PBM E-score
1,ATCATTTA,-0.016
2,CATAAGGC,-0.0459
3,ACCTAATC,-0.0221
4,AAAGATAT,0.093
5,GAATGCCC,0.0594
6,ATGTGGAG,-0.0382
7,CACGCCCG,0.281
8,CCAGATTC,0.0428
9,TCGCAGCA,-0.195
10,GAAACATC,-0.0136
11,CTGACCAG,-0.142
12,ATAGACGG,0.11
13,AGCGAGAG,-0.0312
14,AGTAGAGG,-0.298
15,TAACTGTA,-0.343
16,AGTTACGC,-0.125
17,GCCACGAC,0.1
18,ATTGGAAC,-0.124
19,AATGACCT,-0.103
20,GTGTGGAA,-0.0715
21,CCATGGAA,-0.178
22,CTCTGTTA,0.0174
